Experimental findings from PMC4336329 (PLoS ONE, 2015) are described below.

Screen size: about 310,000 compounds; about 2,200 (0.71%) showed an effect of 50% or more. The effect is printed as a negative number. This is one part of the list.

This test deals with human ether-à-go-go-related gene (hERG) potassium channel (human, UniProt Q12809). Kind of test: primary screen, population patch clamp on CHO cells stably expressing hERG.
human ether-à-go-go-related gene (hERG) potassium channel, sequence (Q12809 whole entry, looked up): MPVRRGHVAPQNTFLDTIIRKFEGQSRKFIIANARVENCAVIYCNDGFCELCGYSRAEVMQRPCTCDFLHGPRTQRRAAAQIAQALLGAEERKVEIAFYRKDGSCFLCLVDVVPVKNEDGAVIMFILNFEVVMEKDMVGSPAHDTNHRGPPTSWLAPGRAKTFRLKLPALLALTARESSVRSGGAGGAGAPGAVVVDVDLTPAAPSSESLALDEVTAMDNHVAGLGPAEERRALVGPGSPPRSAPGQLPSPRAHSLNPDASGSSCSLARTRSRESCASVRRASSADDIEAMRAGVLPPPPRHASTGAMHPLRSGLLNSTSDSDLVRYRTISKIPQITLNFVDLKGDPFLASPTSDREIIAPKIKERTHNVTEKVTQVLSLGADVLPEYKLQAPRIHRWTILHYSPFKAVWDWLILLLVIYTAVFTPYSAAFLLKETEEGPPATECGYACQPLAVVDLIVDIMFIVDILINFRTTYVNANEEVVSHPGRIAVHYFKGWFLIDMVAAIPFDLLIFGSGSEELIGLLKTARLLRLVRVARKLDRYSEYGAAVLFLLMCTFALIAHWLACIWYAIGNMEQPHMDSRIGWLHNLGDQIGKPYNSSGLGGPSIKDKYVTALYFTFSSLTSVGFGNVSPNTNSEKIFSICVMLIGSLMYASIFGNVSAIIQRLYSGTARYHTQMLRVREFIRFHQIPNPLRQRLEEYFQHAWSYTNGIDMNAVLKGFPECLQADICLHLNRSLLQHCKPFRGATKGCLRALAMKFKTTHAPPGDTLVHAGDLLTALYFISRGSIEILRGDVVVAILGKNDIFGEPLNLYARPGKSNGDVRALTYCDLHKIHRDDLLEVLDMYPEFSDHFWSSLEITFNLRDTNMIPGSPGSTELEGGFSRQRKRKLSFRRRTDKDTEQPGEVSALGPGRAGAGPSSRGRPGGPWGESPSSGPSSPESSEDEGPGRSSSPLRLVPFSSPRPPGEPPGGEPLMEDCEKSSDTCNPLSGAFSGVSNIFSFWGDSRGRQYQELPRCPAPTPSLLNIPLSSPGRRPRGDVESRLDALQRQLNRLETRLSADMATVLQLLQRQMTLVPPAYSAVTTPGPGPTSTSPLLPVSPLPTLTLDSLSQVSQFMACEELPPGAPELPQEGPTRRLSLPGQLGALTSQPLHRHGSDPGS
As for `COc1cccc(NC(=O)CN(C)C(=O)c2cc(-c3ccccc3)nc3ccccc23)c1`, the “hERG current change (%, negative = inhibition) at 1uM” value was found to be 12.5%. On to `Cc1cc(N/C(=N\S(=O)(=O)c2ccc(Cl)cc2)c2ccc(F)cc2)no1`, for which the “hERG current change (%, negative = inhibition) at 1uM” value amounted to 1.04%. Turning to `COc1cc(SC)ccc1C(=O)NCCN1CCOCC1`, the “hERG current change (%, negative = inhibition) at 1uM” value stood at 15%. The result for `O=c1sc(Nc2ccccc2)nc2ccccc12` reads 4.24%; that for `CCOC(=O)C(Oc1ccc2c(-c3ccccc3)cc(=O)oc2c1)c1ccccc1` (stereo not drawn), 10.7%; that for `Cc1ccc2nc(Nc3ccccc3O)nc(-c3ccccc3)c2c1`, 15.8%.

On to `CCOc1ncccc1C(=O)NCc1ccccc1`, for which the “hERG current change (%, negative = inhibition) at 1uM” value was found to be 9.9%. As to `CC1=CCC2C(=O)N(CCc3c[nH]c4ccccc34)C(=O)C2C1` (stereo not drawn), the “hERG current change (%, negative = inhibition) at 1uM” value is reported as 2.89%. On to `CC(C)CN1CCN(C(=O)CCc2nnc(Cc3c[nH]c4ccccc34)o2)[C@@H](C)C1=O`, for which the “hERG current change (%, negative = inhibition) at 1uM” value is recorded as 6.1%. For the compound `CCCCS(=O)(=O)Nc1ccc2cn[nH]c2c1`, the “hERG current change (%, negative = inhibition) at 1uM” value amounted to 3.5%.

As for `Cc1cc(C)c(NC(=S)N(CCc2ccncc2)C(C)C)c(C)c1`, the “hERG current change (%, negative = inhibition) at 1uM” value is 2.51%. The result for `CCc1ccccc1N(C)S(=O)(=O)c1cc(-c2cc(C)no2)ccc1OC` reads 15.3%. On to `Cc1ccc(-n2ncc3c2CC(C)(C)CC3NC(=O)CCN2CCCCC2=O)cc1` (stereo not drawn), for which the “hERG current change (%, negative = inhibition) at 1uM” value was 1.85%. Turning to `CN(C)CCNC(=S)Nc1ccc(Cl)cc1`, the “hERG current change (%, negative = inhibition) at 1uM” value was found to be 6.76%.

Consider `O=C(COc1ccc([N+](=O)[O-])cc1)Nc1ccc(C(=O)Nc2ccccc2C(=O)O)cc1`, for which the “hERG current change (%, negative = inhibition) at 1uM” value is given as -6.32%. As to `CN(C(=O)COC(=O)C1CSC2(C)CCC(=O)N12)c1ccccc1` (stereo not drawn), the “hERG current change (%, negative = inhibition) at 1uM” value is listed as 6.89%.

As to `CCN(CC)S(=O)(=O)c1ccc(N2CCCC2)c(NC(=O)c2ccncc2)c1`, the “hERG current change (%, negative = inhibition) at 1uM” value is given as -5.02%.

Regarding `COc1ccc(-n2c3c(c(=O)[nH]c2=O)C(NS(=O)(=O)c2ccc(Cl)cc2)(C(F)(F)F)C(=O)N3)cc1` (stereo not drawn), the “hERG current change (%, negative = inhibition) at 1uM” value is given as 12%.

Take `CC(C)N(C(=O)/C=C/c1cccc([N+](=O)[O-])c1)C(C)C`: the “hERG current change (%, negative = inhibition) at 1uM” value is 7.97%.

Turning to `Cc1cc(=O)oc2cc(NC(=O)c3ccnn3C)ccc12`, the “hERG current change (%, negative = inhibition) at 1uM” value is recorded as 14.4%. The result for `COc1ccc(C(=O)NC2CCc3ccccc32)cc1OC1CCN(C(C)C)CC1` (stereo not drawn) reads -1.49%; that for `CCOc1ccccc1NC(=O)C(=O)/C=C(\O)c1cc(OC)ccc1OC`, 19.4%. Next, `COC(C(=O)Nc1ccnn1C1CCN(Cc2cnn(C(C)C)c2)CC1)c1ccccc1` (stereo not drawn): 4.49%. `Cn1c2ccccc2c2nnc(SCc3nnc(-c4ccccc4)o3)nc21`: the “hERG current change (%, negative = inhibition) at 1uM” value was -12.2%.

With `CC(C)OCCCNC(=O)CNC(=O)c1cccs1`, the “hERG current change (%, negative = inhibition) at 1uM” value was 12.3%. Next, `Cc1ccccc1CC1(CO)CCCN(C(=O)c2ccc3ncccc3c2)C1` (stereo not drawn): 14.5%; `Cc1nc(NC(=O)CSc2nnc3ccccn23)c(Cl)cc1Cl`: 0.223%; `O=C(NCC1CCCO1)c1cnc(Cl)c(Cl)c1` (stereo not drawn): 12.1%.

For `O=C(c1cccn2c(=O)c3ccccc3nc12)N1CCN(Cc2ccc3c(c2)OCO3)CC1`, the “hERG current change (%, negative = inhibition) at 1uM” value is given as -54.4%. Next, `Cc1ccc(/C=N/NC(=O)CN2CCN(Cc3ccccc3)CC2)s1`: -22%; `COc1ccc(-c2csc(N)n2)cc1`: 5.19%; `CCN1C(=O)CC(N2CCC(Nc3ccc(F)cc3)CC2)C1=O` (stereo not drawn): 8.57%.

For `NS(=O)(=O)c1ccc(NCc2ccccc2OCc2ccc(F)cc2)cc1`, the “hERG current change (%, negative = inhibition) at 1uM” value is -12.3%. The result for `O=[N+]([O-])c1ccc(Cl)c(CN2CCN(c3ncccn3)CC2)c1` reads 9%; that for `NS(=O)(=O)c1ccc(NC(=O)COC(=O)CNC(=O)C23CC4CC(CC(C4)C2)C3)cc1`, -0.322%. Consider `Cc1ccc(C)c(NC(=O)C2CCCN2C(=O)OC(C)(C)C)c1` (stereo not drawn), for which the “hERG current change (%, negative = inhibition) at 1uM” value is 9.8%. On to `Cc1cnc(C(=O)Nc2ccc(C)c(S(=O)(=O)N3CCCCC3)c2)cn1`, for which the “hERG current change (%, negative = inhibition) at 1uM” value is 2.5%. As for `Cc1ccc(N2C(=O)NC(=O)/C(=C/C=C/c3ccco3)C2=O)cc1`, the “hERG current change (%, negative = inhibition) at 1uM” value came to 10.9%. For `COc1cc2c(cc1OC)C1=C(C#N)CC/C(=N\S(=O)(=O)c3cccc(Cl)c3)N1CC2`, the “hERG current change (%, negative = inhibition) at 1uM” value was -3.52%. Turning to `O=c1cc(CN2CCN(Cc3ccccc3)CC2)c2ccc(O)c(O)c2o1`, the “hERG current change (%, negative = inhibition) at 1uM” value is on record as -21.7%. The result for `CC(C)n1nnnc1SCC(=O)N1CCN(Cc2ccc3c(c2)OCCO3)CC1` reads 2.08%; that for `c1ccc(-c2ccc3sccc3n2)cc1`, 12.8%; that for `Cc1ccc(NC(=O)C(C)OC(=O)Cc2c[nH]c3ccccc23)cc1` (stereo not drawn), 1.69%. As to `O=C(Nc1ccc(N2CCOCC2)c(S(=O)(=O)Nc2cc(Cl)ccc2Cl)c1)c1cccnc1`, the “hERG current change (%, negative = inhibition) at 1uM” value was determined as 3.94%. As to `Cc1ccc(S(=O)(=O)c2c(N)n(Cc3ccco3)c3nc4ccccc4nc23)cc1C`, the “hERG current change (%, negative = inhibition) at 1uM” value was -2.5%.

With `CC(C)(C)NC(=O)[C@@H]1C[C@@H]2CCCC[C@@H]2CN1C[C@@H](O)[C@H](Cc1ccccc1)NC(=O)[C@H](CC(N)=O)NC(=O)c1ccc2ccccc2n1.CS(=O)(=O)O`, the “hERG current change (%, negative = inhibition) at 1uM” value is reported as -12.7%.

In the case of `O=c1[nH]c(=S)n(C2CC2)c(O)c1C=NCCc1ccccc1`, the “hERG current change (%, negative = inhibition) at 1uM” value is 8.78%. For the compound `COCCn1nnnc1CN(Cc1ccco1)Cc1cc2cc3c(cc2[nH]c1=O)OCO3`, the “hERG current change (%, negative = inhibition) at 1uM” value is -3.33%.

As for `COc1ccc(N=C(c2ccccc2)c2c(C)[nH]n(-c3ccccc3)c2=O)c(OC)c1`, the “hERG current change (%, negative = inhibition) at 1uM” value is 7.06%.

Consider `O=C(NC(=S)Nc1ccccc1Cl)c1ccco1`, for which the “hERG current change (%, negative = inhibition) at 1uM” value came to 13.2%. For `Cc1[nH]nc(SCC(=O)N2CCCC2)c1[N+](=O)[O-]`, the “hERG current change (%, negative = inhibition) at 1uM” value was determined as 3.07%.

Consider `Cc1cc(C)nc(Sc2ccc(/C=C(\C#N)C(N)=O)o2)n1`, for which the “hERG current change (%, negative = inhibition) at 1uM” value was 0.7%. The result for `Cc1nc2ccccc2c2oc(C(=O)N3CCC(C)CC3)cc12` reads -2.21%; that for `CCN(CC)S(=O)(=O)c1cc(OC)ccc1N=Nc1ccc(O)c2ncccc12`, 13.5%; that for `COC(=O)Cn1cc(C(=O)c2ccccc2F)c2ccccc21`, 14.3%. Take `COc1cc(NC(=O)Cc2ccccc2)nc(OC)n1`: the “hERG current change (%, negative = inhibition) at 1uM” value worked out at 11.6%. Regarding `O=C(Nc1ccccc1N1CCCCC1)c1ccco1`, the “hERG current change (%, negative = inhibition) at 1uM” value is 21.2%.

As for `Cc1cccc2cc(CN(Cc3cccs3)C(=S)NCC3CCCO3)c(=O)[nH]c12` (stereo not drawn), the “hERG current change (%, negative = inhibition) at 1uM” value was 14.7%. Next, `COc1cc2c(cc1/C=C1/NC(=O)N(CC(=O)Nc3ccccc3)C1=O)OCO2`: 0.683%; `CCc1ccc(NC(=O)Cn2cccc2)cc1`: 3.61%; `COc1cc2c(cc1OC)C(C(=O)N1CCN(c3ccccc3)CC1)C(c1cccs1)N(C)C2=O` (stereo not drawn): -23.2%.

In the case of `NNC(=O)CSc1nc(-c2ccccc2)cn1-c1ccccc1`, the “hERG current change (%, negative = inhibition) at 1uM” value came out at 3.42%. With `CC1CCC(C(C)C)C(OC(=O)CSc2nnc(N)s2)C1` (stereo not drawn), the “hERG current change (%, negative = inhibition) at 1uM” value is recorded as 5.19%.

For `CCc1ccccc1NC(=O)CN1CCN(C(=O)C2CCN(C(=O)/C=C/c3ccccc3)CC2)CC1`, the “hERG current change (%, negative = inhibition) at 1uM” value is on record as -74.5%. For the compound `COc1ccc(C)cc1S(=O)(=O)N(C)CC(=O)NCc1ccco1`, the “hERG current change (%, negative = inhibition) at 1uM” value is recorded as 10.9%. As to `Cc1cc(C)cc(NC(=S)N2CCN(c3ncc(C(F)(F)F)cc3Cl)CC2)c1`, the “hERG current change (%, negative = inhibition) at 1uM” value worked out at 4.11%. Next, `CCCOc1ccc(N2C(=O)CC(S/C(N)=N/N=C(\C)c3cccs3)C2=O)cc1` (stereo not drawn): 1.43%. On to `Cc1ccc(S(=O)(=O)c2c(C)cc(C)nc2N2CCCC2)cc1`, for which the “hERG current change (%, negative = inhibition) at 1uM” value stood at 0.422%. On to `Cc1ccc(NC(=O)c2cc(S(=O)(=O)N3CCCCC3)ccc2N2CCOCC2)cc1F`, for which the “hERG current change (%, negative = inhibition) at 1uM” value is 12.7%. Next, `CCN1CCCC1CNCc1cc(OC)c(OC)c(OC)c1.Cl` (stereo not drawn): 7.34%; `CC(=O)Oc1ccc(/C(C)=N\N2CCN(Cc3ccc(Cl)cc3)CC2)cc1`: -16.4%; `CC1(C)Cc2c(c(-c3ccco3)nc3sc4c(NCCO)ncnc4c23)CO1`: 9.73%. For `O=C(COc1coc(CN2CCc3ccccc3C2)cc1=O)N1CCOCC1`, the “hERG current change (%, negative = inhibition) at 1uM” value is 14.6%. The result for `CN(C)CCSc1nc(-c2ccccc2)nc2c1CCCC2` reads 8.01%; that for `Cc1c(Cl)c([N+](=O)[O-])nn1CCCC(=O)Nc1ccc(Cl)cc1Cl`, 0.573%; that for `N#Cc1c(NC(=O)CSc2nc(-c3ccco3)cc(C(F)(F)F)n2)sc2c1CCCC2`, 13.9%. In the case of `O=C1CCCN1CCCNS(=O)(=O)c1ccc(Cl)c(C(=O)N2CCOCC2)c1`, the “hERG current change (%, negative = inhibition) at 1uM” value amounted to 12.8%. With `COc1ccccc1C(=O)c1cc2ccc(O)cc2oc1=O`, the “hERG current change (%, negative = inhibition) at 1uM” value came out at 11.7%. Next, `C[C@@H]1NC(=O)N[C@@H]1CCCCCC(=O)O`: 11%; `C/C(CC(=O)Nc1ccccn1)=N\NC(=O)c1ccncc1`: 13.8%. Turning to `CCn1c(=O)cc(SCC(=O)N2CCC3(CC2)OCCO3)c2ccccc21`, the “hERG current change (%, negative = inhibition) at 1uM” value was 15.3%. Next, `COc1ccc(NC(=O)CSc2ccc3nnc(-c4cccnc4)n3n2)cc1`: -40%. In the case of `Cc1cc2c(cc1S(=O)(=O)N(C)Cc1ccccc1)OCC(=O)N2`, the “hERG current change (%, negative = inhibition) at 1uM” value stood at 17.8%. With `COc1cc(NC(=O)COc2cc(C)cc3oc(=O)c(C)c(C)c23)cc(OC)c1OC`, the “hERG current change (%, negative = inhibition) at 1uM” value is listed as 22.7%. As to `Cc1c(-c2ccccc2)nnn1-c1ccc(F)cc1F`, the “hERG current change (%, negative = inhibition) at 1uM” value is 3.36%. Next, `CCCC(=O)c1ccc(N2CCN(C(=O)c3cccs3)CC2)c(F)c1`: -18.1%; `CCOCCn1c(CN2CCCC(C)C2)nc2c1c(=O)n(C)c(=O)n2C` (stereo not drawn): 17.4%.
